About 2,200 (0.71%) of roughly 310,000 compounds showed an effect of 50% or more. The effect is printed as a negative number. This is one part of the list.

Chain of human ether-à-go-go-related gene (hERG) potassium channel (Q12809 whole entry, looked up): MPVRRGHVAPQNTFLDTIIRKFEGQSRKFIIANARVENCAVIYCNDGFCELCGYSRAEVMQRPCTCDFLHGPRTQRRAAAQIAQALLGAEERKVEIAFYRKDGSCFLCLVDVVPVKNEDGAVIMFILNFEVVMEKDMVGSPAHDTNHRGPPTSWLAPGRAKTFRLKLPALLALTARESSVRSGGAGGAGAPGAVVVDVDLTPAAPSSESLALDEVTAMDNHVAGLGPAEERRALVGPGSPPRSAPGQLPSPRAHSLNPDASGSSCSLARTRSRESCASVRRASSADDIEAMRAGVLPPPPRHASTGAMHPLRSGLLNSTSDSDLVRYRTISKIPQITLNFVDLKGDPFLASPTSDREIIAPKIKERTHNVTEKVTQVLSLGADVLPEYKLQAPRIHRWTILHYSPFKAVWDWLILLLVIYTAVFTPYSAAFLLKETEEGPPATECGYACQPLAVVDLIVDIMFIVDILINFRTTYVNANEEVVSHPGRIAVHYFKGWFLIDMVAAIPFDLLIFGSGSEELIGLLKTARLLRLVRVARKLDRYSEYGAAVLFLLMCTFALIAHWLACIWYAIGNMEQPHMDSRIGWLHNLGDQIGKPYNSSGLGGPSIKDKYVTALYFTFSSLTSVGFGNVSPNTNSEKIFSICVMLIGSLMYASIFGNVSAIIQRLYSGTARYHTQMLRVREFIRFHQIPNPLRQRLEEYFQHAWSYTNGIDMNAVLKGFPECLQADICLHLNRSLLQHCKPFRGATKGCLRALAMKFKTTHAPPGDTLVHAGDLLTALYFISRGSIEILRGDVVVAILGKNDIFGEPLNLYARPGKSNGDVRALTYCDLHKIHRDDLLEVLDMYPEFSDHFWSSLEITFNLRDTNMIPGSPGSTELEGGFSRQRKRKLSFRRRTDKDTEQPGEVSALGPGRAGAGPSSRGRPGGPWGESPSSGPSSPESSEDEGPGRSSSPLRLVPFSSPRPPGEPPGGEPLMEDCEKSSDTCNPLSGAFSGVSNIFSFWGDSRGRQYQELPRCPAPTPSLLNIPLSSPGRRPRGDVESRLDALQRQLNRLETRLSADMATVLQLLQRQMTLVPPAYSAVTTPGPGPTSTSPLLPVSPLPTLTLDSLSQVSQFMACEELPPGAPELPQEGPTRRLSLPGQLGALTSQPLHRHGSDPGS

The assay has as its target human ether-à-go-go-related gene (hERG) potassium channel (human, UniProt Q12809). Nature of the assay: primary screen, population patch clamp on CHO cells stably expressing hERG.
On to `COc1ccccc1C(CNC(=O)c1ccc(NS(=O)(=O)c2ccc3c(c2)OCCO3)cc1)N(C)C` (stereo not shown), for which the “hERG current change (%, negative = inhibition) at 1uM” value was -2.03%.
As for `C/C=C(\C)c1nnc(NC(=O)c2ccco2)s1`, the “hERG current change (%, negative = inhibition) at 1uM” value is reported as 5.16%.
Regarding `Cc1nnc(SCC(=O)Nc2cccc(S(N)(=O)=O)c2)n1-c1ccccc1`, the “hERG current change (%, negative = inhibition) at 1uM” value is listed as 12%.
Take `O=C(O)c1cc(-c2ccc(/C=N/N3C(=O)C4C5C=CC(CC5)C4C3=O)o2)ccc1Cl` (stereo not shown): the “hERG current change (%, negative = inhibition) at 1uM” value was 6.23%.
As for `N#CC1(NC(=O)CSc2nc3ncc(Cl)cc3[nH]2)CCCCC1`, the figure is 15.1%; as for `O=C(c1ccc2c(c1)OCO2)N1CCN(c2ccc(Cl)cc2)CC1`, -0.904%; as for `C=CCN=C1SC(C)(C)C(=O)N1S(=O)(=O)c1ccc(C)cc1`, 7.75%.
As for `O=C(/C=C/c1ccc(Cl)cc1)N1CCN(c2c(Cl)cccc2[N+](=O)[O-])CC1`, the figure is 12.1%; as for `O=C(NCCN1CCc2ccccc2C1)Nc1ccc([N+](=O)[O-])cc1`, -26.4%; as for `COc1ccc(N2C(=O)c3ccccc3NC2c2ccc(OC)c(CN3CCOCC3)c2)cc1` (stereo not shown), 1.94%.
In the case of `COc1cccc(NC(=O)c2ccccc2-c2ccccc2)c1` it was 11.6%; in that of `CC(C)OCCCNC(=O)CN1C(=O)c2cccc3cccc1c23`, 9.4%.
As for `COC(=O)c1ccccc1NC(=O)C1CCN(C(=O)Cc2ccccc2)CC1`, the “hERG current change (%, negative = inhibition) at 1uM” value is -11.2%.
As for `COc1ccc(NC(=O)c2ccccn2)cc1OC`, the figure is 8.05%.
In the case of `COc1ccc(Cl)cc1NC(=O)NN1CCN(C)CC1`, the “hERG current change (%, negative = inhibition) at 1uM” value was -7.68%.
On to `CC1=C/C(=N\NC(=S)NCCc2ccccc2)CC(C)(C)C1`, for which the “hERG current change (%, negative = inhibition) at 1uM” value turned out to be 12.3%.
Turning to `CCCn1c(=O)c2ccccc2n2c(Sc3nnnn3-c3ccccc3)nnc12`, the “hERG current change (%, negative = inhibition) at 1uM” value was -5.71%.
As for `CC(C)(C)NC(=O)Cn1c(SCC(=O)NC2CCCC2)nc2ccccc21`, the “hERG current change (%, negative = inhibition) at 1uM” value was 4.2%.
In the case of `Brc1ccccc1-c1nnc(CSc2nnc3sc4ccccc4n23)o1` it was -3.6%.
For the compound `Cc1oc(-c2cc(F)ccc2F)nc1CN(C)Cc1ccc2nccnc2c1`, the “hERG current change (%, negative = inhibition) at 1uM” value is reported as 5.06%.
Consider `CC(=O)Nc1ccccc1C(=O)OCc1ccc(C(=O)c2ccccc2)cc1`, for which the “hERG current change (%, negative = inhibition) at 1uM” value is given as 4.46%.
As for `O=C(Nc1cc2c3c(c1)CC(=O)N3CCC2)c1ccccc1C(F)(F)F`, the figure is -0.0117%; as for `COc1cc(OC)cc(C(=O)Nc2ccc(-n3cnnn3)c(C)c2)c1`, -0.326%.
In the case of `O=[N+]([O-])c1cccc(CN2CC=C(c3ccc(F)cc3)CC2)c1` it was 13.3%.
In the case of `O=[N+]([O-])c1ccc2nc(-c3ccc(Cl)cc3)[nH]c2c1` it was 7.59%; in that of `COc1ccc(OC)c(S(=O)(=O)N2CCC(C(=O)NC3CC3)CC2)c1`, 8.35%; in that of `O=C(CCn1c(=S)[nH]c2ccccc2c1=O)NCCCN1CCCC1=O`, -18.9%.
Consider `COc1ccccc1N1CCN(C2CCCN(C(=O)c3snnc3C)C2)CC1` (stereo not shown), for which the “hERG current change (%, negative = inhibition) at 1uM” value is reported as 11.4%.
For `CN1CCC(=O)N([C@H](CSc2ccccc2)Cc2ccccc2)CC1`, the “hERG current change (%, negative = inhibition) at 1uM” value is -21.6%.
In the case of `COC(=O)c1ccc(C2CC(=O)NC3=C2C(=O)CCC3)cc1` (stereo not shown) it was 2.4%.
In the case of `Cc1nonc1NC(=O)CSc1nnc(-c2ccoc2C)n1C` it was 9.71%.
In the case of `COc1cccc(NC(=O)CN(C)C(=O)c2ccccc2OCC(=O)Nc2cccc(C(F)(F)F)c2)c1` it was 3.79%; in that of `COc1ccccc1C(=O)Nc1ccncc1`, 11.4%.
Take `COC(=O)C1=CO[C@@H](C)[C@H]2CN3CC[C@]4(C(=O)Nc5ccccc54)[C@@H]3C[C@H]12`: the “hERG current change (%, negative = inhibition) at 1uM” value is reported as 16.5%.
Take `CCN(CCNC(=O)c1cccc(N2CCCC2=O)c1)c1ccccc1`: the “hERG current change (%, negative = inhibition) at 1uM” value is on record as -5.98%.
In the case of `C/C=C1\COC(C(=O)NCCN2CCCC2)(C(F)(F)F)C=C1C=C1CCCCC1` (stereo not shown) it was 12%; in that of `CC1(C)CC(=O)C2=C(C1)NC(=O)NC2c1ccc([N+](=O)[O-])cc1` (stereo not shown), 12.8%.
In the case of `CCOc1ccc(C(=O)NCC(=O)OCCCOC(=O)CNC(=O)c2ccc(OCC)cc2)cc1` it was 1.84%.
In the case of `CCN(C(=O)c1cnc2scc(C)n2c1=O)c1ccccc1C` it was 7.95%; in that of `Cn1c(N)c(C(=O)CSc2ncn[nH]2)c(=O)n(C)c1=O`, 17.1%; in that of `COc1ccc(/C=C(\NC(=O)c2ccc(OC)cc2)C(=O)Nc2ccc(C(=O)O)cc2)cc1`, 11%.
Take `COc1ccc(OC)c(NC(=O)Cn2cccc2)c1`: the “hERG current change (%, negative = inhibition) at 1uM” value is on record as -4.61%.
In the case of `CCCn1cc(SCC(=O)NCc2ccco2)c2ccccc21` it was -4.79%; in that of `CCOC(=O)Cc1c(C)c2c(C)[nH]nc2oc1=O`, -4.5%.
In the case of `CC1CCN(Cc2nnnn2CCCC(=O)N(C)C(C)c2ccccn2)CC1` (stereo not shown) it was 18.2%; in that of `Cc1ccc(/C=C/C(=O)OCC(=O)NC(=O)NCc2ccccc2)cc1`, 16.4%; in that of `O=C(Nc1c(C(=O)N2CCOCC2)oc2ccccc12)c1cccc([N+](=O)[O-])c1`, 11.4%.
`Cn1c(=O)[nH]c(=O)c2c1nc(N1CCCC1)n2CCO`: the “hERG current change (%, negative = inhibition) at 1uM” value stood at 13.2%.
For `CCCCOC(=O)c1cc(=O)[nH]c2ccccc12`, the “hERG current change (%, negative = inhibition) at 1uM” value is given as -6.46%.
Take `Cc1cc(SCC(=O)[O-])nc2ccccc12`: the “hERG current change (%, negative = inhibition) at 1uM” value stood at 19%.
For the compound `C=CCn1c(SCc2c(C)noc2C)nc2sc3c(c2c1=O)CCC(C)C3` (stereo not shown), the “hERG current change (%, negative = inhibition) at 1uM” value came out at 7.39%.
In the case of `CCc1nc2ccccc2n(CC)c1=O` it was 11.6%; in that of `CC(NC(=O)c1cc2c(=O)n3ccccc3nc2n(CC2CCCO2)c1=N)c1ccccc1` (stereo not shown), -72.3%.
As for `O=C(CSc1nnnn1-c1cccc2c1CCCC2)NC1CCCC1`, the figure is 13.7%.
In the case of `COc1cc2c(C#N)c(N3CCCCC3)nc(N)c2c(N)n1` it was 0.442%; in that of `CN(C)c1nc(N)c([N+](=O)[O-])c(N2CCCCCC2)n1`, 7.23%.
As to `CCCCn1c(N)c(N(CCOC)C(=O)CSc2nnc(-c3ccc(C(C)(C)C)cc3)n2N)c(=O)[nH]c1=O`, the “hERG current change (%, negative = inhibition) at 1uM” value came out at 2.18%.
As for `CCCn1c(SCC(=O)Nc2nonc2C)nnc1-c1ccoc1C`, the figure is 5.83%; as for `OCc1cn(-c2ccc(Cl)cc2)nn1`, 14.3%; as for `O=C(Nc1cccc(Cl)c1)c1ccccc1NC(=O)C1CCCCC1C(=O)O` (stereo not shown), 15.1%.
As for `Cc1c(Nc2cc(=O)oc3ccccc23)c(=O)n(-c2ccccc2)n1C`, the figure is 3.85%; as for `COc1ccc(NC(=O)c2c(-c3c(Cl)cccc3Cl)noc2C)c(OC)c1`, 9.37%; as for `O=C(Nc1ncc(Cc2cc(Cl)ccc2Cl)s1)c1ccc([N+](=O)[O-])cc1`, 10.5%.
In the case of `CCCCCCn1cc(C(=O)O)c(=O)c2cc(F)c(N3CCCCC3)cc21` it was 14%; in that of `O=C(CNC(=S)NC(=O)c1ccccc1Br)c1ccccc1`, 10.2%.
Turning to `O=C1CC(c2ccncc2)c2cc3c(cc2N1)OCO3` (stereo not shown), the “hERG current change (%, negative = inhibition) at 1uM” value was 19.6%.
For `NS(=O)(=O)c1ccc(NCc2cc(Cl)ccc2OCc2ccccc2F)cc1`, the “hERG current change (%, negative = inhibition) at 1uM” value is reported as -1.22%.
In the case of `O=C(NCCc1ccccn1)c1ccc(OC2CCN(CCc3ccccc3)CC2)cc1` it was -4.54%; in that of `OCC1(Cc2cccc(F)c2)CCN(Cc2ccc3cccc(F)c3n2)CC1`, -14.2%.
As to `COc1ccc(CN(CC(=O)NCC2CCCO2)C(=O)CNS(=O)(=O)c2ccccc2)cc1` (stereo not shown), the “hERG current change (%, negative = inhibition) at 1uM” value was found to be 13.7%.
As for `O=C(NCC(c1ccco1)N1CCCC1)c1cccc(S(=O)(=O)Nc2ccc(F)cc2)c1` (stereo not shown), the figure is -0.605%; as for `Cc1c(-n2c(SCC(N)=O)nc3ccccc3c2=O)c(=O)n(-c2ccccc2)n1C`, 8.83%; as for `COc1ccccc1N1C(=S)NC2CS(=O)(=O)CC21` (stereo not shown), 16.7%.
On to `Oc1ccc(CCC2CCCCN2Cc2nc(C3CC3)no2)cc1` (stereo not shown), for which the “hERG current change (%, negative = inhibition) at 1uM” value stood at 12.7%.
As for `CCN(CC)S(=O)(=O)c1ccc(C(=O)NCC2(N3CCOCC3)CCCCC2)cc1`, the figure is -4.49%; as for `CCn1nc(C(=O)Nc2cccc(S(=O)(=O)N3CCCC3)c2)c2ccccc2c1=O`, -1.81%; as for `Cc1c(C(=O)O)cccc1-c1ccc(/C=N/Nc2ccc(Br)cc2)o1`, 16.1%.
With `CCOC(=O)CC1C(=O)NCCN1Cc1cccc(OC)c1` (stereo not shown), the “hERG current change (%, negative = inhibition) at 1uM” value was 15.5%.
In the case of `O=C(O)c1cccc(S(=O)(=O)N2CCc3ccccc3C2)c1` it was 12.9%; in that of `CC(=O)c1ccc(NC(=S)Nc2ccc3[nH]c(=O)[nH]c3c2)cc1`, 12.6%.
Take `O=C(NCC(c1cccnc1)N1CCOCC1)C1CCCCC1` (stereo not shown): the “hERG current change (%, negative = inhibition) at 1uM” value stood at 2.28%.
Turning to `CS(=O)(=O)N1CCN(C(=O)Cc2ccccc2)CC1`, the “hERG current change (%, negative = inhibition) at 1uM” value was determined as 10.3%.
In the case of `Cc1ccc(-n2c(C)cc(/C=C3/C(=N)N4C(c5ccccc5)=CSC4=NC3=O)c2C)cc1` it was 4.49%; in that of `O=C(COC(=O)c1cc2ccccc2cc1O)NC(=O)NCc1ccco1`, 14.9%; in that of `CC(C)OC(=O)C1C(=O)CC(C)(O)C(C(=O)OC(C)C)C1c1cccnc1` (stereo not shown), 19.9%.
With `O=[N+]([O-])c1ccc(/C=N/Nc2ncccc2[N+](=O)[O-])s1`, the “hERG current change (%, negative = inhibition) at 1uM” value was determined as 10.6%.
In the case of `COc1ccc(S(=O)(=O)N2CCN(C(=O)Nc3ccccc3OC)CC2)cc1` it was 8.98%; in that of `CCn1ncc(S(=O)(=O)NCc2ccco2)c1C`, 8.81%.

The values are drawn from article PMC4336329 (PLoS ONE, 2015).
